Measurements published in US8008088B2, “SMMR (small molecule metabolite reporters) for use as in vivo glucose biosensors” (Masimo Laboratories, Inc., priority 2003, dated 2011).

Experiment: Fluorescence and absorption response of boronic acid reporters to glucose in buffer solution (in vitro)
Details: over a glucose range of 200 mg/dL; excitation 375 nm; emission 400-550 nm

O=C(Nc1ccc2c(C(F)(F)F)cc(=O)oc2c1)c1ccc(B(O)O)cc1 [AF-327d]
fluorescence intensity increase: at least 40%
